# From PubChem BioAssay AID1508623 (National Center for Advancing Translational Sciences (NCATS), 2021)
# Hit rate of the full screen: of about 48,000 compounds, about 450 (0.94%) were called active. Inconclusive results (about 19%) are left out. The call rests on the fitted dose curve; in most records, active means well fitted inhibition curve with a large enough effect; inconclusive means small, poorly fitted or top-dose-only effect; inactive means no such curve, though single readings can be large or run the other way. The list shows a part of the results.
# Test: Primary qHTS for Identification of Small Molecule Inhibitors of Huntingtin Promoter Activity; further: nearly all actives have a fitted effect of over 50% in size
# Conditions: HEK293 HTT promoter firefly luciferase reporter (activity 0% = vehicle and -100% = no light), 24 h; series mostly up to 57.5 µM; activity change, negative = inhibition: at the top concentration
# Summary of the method: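 Quantitative HTS used concentration series of up to 57.5 uM final on HEK293 luciferase reporter cells, 24 h at 37 degrees C. Readout was Dual-Glo firefly luminescence.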
# Potency means the concentration at half of the fitted maximal effect.
SMILES,"activity change, negative = inhibition",Potency
CC=C(C(=CC)c1ccc(O)cc1)c1ccc(O)cc1,inactive: -31%,–
CCn1cc(C(=O)OCC(=O)Nc2ccc(F)cc2F)c(=O)c2ccc(C)nc21,inactive: -12.9%,–
Cc1cccc(-c2nc(Cn3c(=O)cc(-c4ccccc4)c4c(C)nn(C)c43)c(C)o2)c1,inactive: 4.01%,–
CCCn1c2ccccc2c2cnn(CC(=O)NCCc3ccccc3)c(=O)c21,inactive: -23.4%,–
COC(=O)c1ccc(Cn2c(=O)cc(C(F)(F)F)c3c(C)nn(C)c32)cc1,inactive: -17.6%,–
CCN(c1ccc(OC)cc1)S(=O)(=O)c1ccc2[nH]c(=O)ccc2c1,inactive: -26.3%,–
CCOc1ccc(S(=O)(=O)N(CC(=O)NCCSc2ccccc2)c2ccccc2)cc1,inactive: -9.56%,–
O=C(Cn1c2ncccc2c(=O)n1-c1ccccc1)Nc1ccc(F)c(F)c1,inactive: 15%,–
Cc1cc(N2CCCCC2)nc2ccc(NC(=O)/C=C/c3ccccc3Cl)cc12,inactive: -28.1%,–
CCc1ccccc1NC(=O)NCc1ccc2c(c1)CCN2C(=O)c1ccccc1,inactive: -9.77%,–
O=C(Nc1ccccc1C(=O)OCc1cc(=O)n2c3c(sc2n1)CCCC3)c1cccc(Cl)c1,inactive: -9.04%,–
O=C(CSc1nccn1Cc1ccccc1)NCc1ccccc1Cl,inactive: 4.53%,–
CCOC(=O)CC(NC(=O)N1CCC(CN2CCC(C)CC2)CC1)c1ccccc1 (configuration not stated),inactive: -3.19%,–
CC(C)Cn1cc(NC(=O)N2CCN(c3ccccc3F)CC2)c2ccccc2c1=O,inactive: -9.27%,–
CC1(C)[C@@H]2CC[C@@]1(C)C(=O)C2,inactive: 6.63%,–
Cc1cccc(CNC(=O)CCn2ccc3cc(S(=O)(=O)N4CCCC4)ccc32)c1,inactive: -26.1%,–
COc1ccc(-c2cn3nc(N4CCCC(C(=O)NCc5ccccc5Cl)C4)sc3n2)cc1 (configuration not stated),inactive: -6.42%,–
COc1ccc(OC)c(CCNC(=O)c2cnn(-c3ccccc3)c2C2CCN(C(=O)OC(C)(C)C)CC2)c1,inactive: -16%,–
O=c1c(N2CCN(c3cccc(C(F)(F)F)c3)CC2)csc2ccc(Cl)cc12,inactive: 6.06%,–
COc1cc(OC)cc(N2CCN(S(=O)(=O)c3ccc(-n4cnnn4)cc3)CC2)c1,inactive: -1.27%,–
COC(=O)c1cc2oc3ccccc3c2n1Cc1cc(C)ccc1C,inactive: -10.1%,–
Cc1nn(C)c2c1c(-c1ccccc1)cc(=O)n2C(C)C(=O)NCc1ccc(F)cc1 (configuration not stated),inactive: 0%,–
O=C1CC(c2ccccc2)Cc2[nH]c(=O)c(-c3nc(-c4ccc(Cl)cc4)cs3)cc21 (configuration not stated),inactive: -33.8%,–
CCN1CCN(C(c2cccc(F)c2)c2c(O)cc(C)n(Cc3ccco3)c2=O)CC1 (configuration not stated),inactive: -4.32%,–
CC(=O)c1cccc(NC(c2ccc(F)cc2)c2nnc(-c3ccccc3)o2)c1 (configuration not stated),inactive: -27.1%,–

SMILES,"activity change, negative = inhibition",Potency
Cc1ccc(-n2nnnc2CNC(=O)C(C)C)cc1C,inactive: 1.74%,–
CCSc1nnc2c(n1)OC(CC)N(C(C)=O)c1ccccc1-2 (configuration not stated),inactive: -13.7%,–
O=C(NCCC1=CCCCC1)c1ccc2c(c1)ncn2-c1ccc(F)c(F)c1,inactive: 14.3%,–
O=c1c2c(-c3ccc(Cl)cc3)ccnc2[nH]n1-c1ccccc1,inactive: -3.94%,–
CCN(Cc1ccccc1)Cc1c(O)ccc2c(=O)c(-c3ccccc3Cl)c(C(F)(F)F)oc12,inactive: -10.5%,–
COc1ccc(OC)c(C2c3c(oc4ccc(C)cc4c3=O)C(=O)N2CCCN(C)C)c1 (configuration not stated),inactive: -12.5%,–
O=C(NCc1cccc(F)c1)c1cccc(NC(=O)c2nsc3ccccc23)c1,inactive: 20.4%,–
C=Cc1c(C)c2cc3[nH]c(cc4nc(cc5nc(cc1[nH]2)C(C)=C5CCC(=O)O)C(CCC(=O)O)=C4C)c(C)c3C=C,inactive: 1.19%,–
CC(=O)Nc1cccc(NC(=O)c2c(-c3ccccc3)c(-c3ccccc3)nn(C)c2=O)c1,inactive: -0.399%,–
CCCN(CCC)C(=O)CSc1nc2sc3c(c2c(=O)n1-c1ccccc1)CCN(C(C)=O)C3,inactive: -3.11%,–
CCc1ccc(-n2nc3ccc(NC(=O)c4ccc(C#N)cc4F)cc3n2)cc1,inactive: -4.79%,–
Cc1cccc(-n2ncc3c(NC4CCCC4)ncnc32)c1,inactive: 3.86%,–
COc1cccc(CNC(=O)C2CCN(c3nnc(-n4c(C)ccc4C)s3)CC2)c1,inactive: -15.3%,–
CCOc1ccc(-c2nnc(SCC(=O)NCc3ccc(C)cc3)nc2-c2ccc(OCC)cc2)cc1,inactive: 2.55%,–
CCC(CC)C(=O)Nc1cccc(-c2nc3ccccc3s2)c1,inactive: -13.6%,–
Fc1ccc(-c2cn3cc(Cc4ccc(Cl)cc4)sc3n2)cc1,inactive: 3.12%,–
CCC(C(=O)Nc1cc(-c2nc3cccnc3s2)ccc1C)c1ccccc1 (configuration not stated),inactive: 22.2%,–
CCOc1ccccc1C1CC(=O)Oc2c1c(=O)n(C)c1ccccc21 (configuration not stated),inactive: -2.3%,–
Cc1ccc(Cl)cc1NC(=O)Cn1c(=O)c2ccccc2n2nncc12,inactive: -10.5%,–
Cc1ccccc1-c1nc2cc(NC(=O)COc3ccc(F)cc3)ccc2o1,inactive: 77.2%,–
CC1=C(C(=O)Nc2ccc(C)cc2C)C(c2ccccc2)n2ncc(C(=O)Nc3ccccc3)c2N1 (configuration not stated),inactive: -32.8%,–
CCOC(=O)c1c(-c2ccccc2)csc1NC(=O)c1cc(-c2ccc(Cl)cc2)on1,inactive: -3.59%,–
COC(=O)c1ccc2c(=O)n(CCCCCC(=O)N3CCN(c4ccc(OC)cc4)CC3)c(=O)[nH]c2c1,inactive: -6.56%,–
CCOC(=O)c1sc(NC(=O)c2cc(-c3ccc(F)cc3)on2)c(C(=O)OCC)c1C,inactive: -5.19%,–
Cc1c(CC(=O)NCCc2ccc(Cl)cc2)c(=O)oc2c(C)c3occ(C(C)(C)C)c3cc12,inactive: -3.25%,–

SMILES,"activity change, negative = inhibition",Potency
Cc1ccc(NC(=O)C2CCCN(S(=O)(=O)c3cccc4cccnc34)C2)c(C)c1 (configuration not stated),inactive: -20.8%,–
CCS(=O)(=O)c1nc(S(=O)(=O)c2ccc(Cl)cc2)c(NCc2ccccc2Cl)s1,inactive: -17.3%,–
COC(=O)C1=C(C)NC(C)=C(C(=O)OCCN2CCN(C(c3ccccc3)c3ccccc3)CC2)C1c1cccc([N+](=O)[O-])c1 (configuration not stated),inactive: -6.18%,–
O=c1c(N2CCc3ccccc3C2)csc2ccccc12,inactive: 12.9%,–
O=C(NCCc1ccccc1)c1ccc2c(c1)N(Cc1ccccc1F)C(=O)c1ccccc1S2=O (configuration not stated),inactive: 11.1%,–
Cc1ccc(-c2ccc(=O)n(CC(=O)Nc3cccc(C#N)c3)n2)cc1,inactive: -6.08%,–
CCOc1ccc(-c2nc3c(c(SCC(=O)N4CCCCC4)n2)Cc2ccccc2O3)cc1,inactive: -8.48%,–
CNC(=O)C1CCC(Cn2c(=O)c3sccc3n(CC(=O)NCc3ccc(F)cc3)c2=O)CC1 (configuration not stated),inactive: -15.5%,–
COc1ccc(NC(=O)c2ccc3c(=O)n4nc(Nc5cccc(Cl)c5C)sc4nc3c2)cc1,inactive: -1.17%,–
CC1=C(C(=O)Nc2cccnc2)C(c2ccccc2)n2nc(-c3ccc(O)cc3)nc2N1 (configuration not stated),inactive: 4.1%,–
Cc1ccc(C2CCN(C(=O)c3cnn(-c4ccc(C)cc4)c3C3CCN(C(=O)OC(C)(C)C)CC3)C2)cc1 (configuration not stated),inactive: 25.3%,–
CCCCCCCCCCCCCCCCN,inactive: -1.57%,–
COc1cccc(NC(=O)CC(C)S(=O)(=O)c2ccc3c(c2)NC(=O)CO3)c1 (configuration not stated),inactive: 5.09%,–
Cc1c(Cl)cccc1NC(=O)c1ncn(-c2ccccc2)n1,inactive: 40.6%,–
COc1ccc(CCNC(=O)CSc2nc(-c3ccc(F)cc3)cc(C(F)(F)F)n2)cc1OC,inactive: -11.3%,–
Cc1cccc(C(=O)Nc2nnc(S(=O)(=O)N(C)Cc3ccco3)s2)c1,inactive: 0.912%,–
CCCN1C[C@H](CSC)C[C@@H]2c3cccc4[nH]cc(c34)C[C@H]21,inactive: -8.01%,–
Cc1ccc(NS(=O)(=O)c2ccc3c(c2)CCCN3C(=O)C2CCC2)cc1Cl,–,active: 22.4 µM
CCOC(=O)C(=O)CCCCCCl,inactive: -3.13%,–
COCCNc1nc2c(S(=O)(=O)c3ccc(C)c(C)c3)nnn2c2ccc(Cl)cc12,inactive: 2.57%,–
COc1cc(OC)cc(C(=O)Nc2ccc(S(=O)(=O)Nc3ncccn3)cc2)c1,inactive: -5.98%,–
O=C(NCc1ccc2c(c1)CCN2C(=O)c1ccc(Cl)cc1)c1cccc(F)c1,inactive: -9.51%,–
Cc1ccc(NC(=O)CCS(=O)(=O)c2cc3c4c(c2)CCN4C(=O)CC3)c(C)c1,inactive: -11.2%,–
O=C(Nc1nnc(S(=O)(=O)Nc2ccccc2)s1)c1ccccc1Cl,inactive: -10.4%,–
CCc1noc(-c2ccc(N3CCCCC3C)c([N+](=O)[O-])c2)n1 (configuration not stated),inactive: 44.8%,–

SMILES,"activity change, negative = inhibition",Potency
CC(=O)Nc1ccccc1,inactive: 2.86%,–
CCC(Oc1ccccc1)C(=O)Nc1cc(-c2ccccc2OC)nn1-c1ccccc1 (configuration not stated),inactive: -29.1%,–
Cc1ccc(-c2nc3c(c(SCC(=O)Nc4ccccc4Cl)n2)Cc2c(CO)cnc(C)c2O3)cc1,inactive: -14.9%,–
CCOC(=O)c1c(S(=O)(=O)NCC(=O)NCc2cccc(C)c2)c(C)n(C)c1C,inactive: -1.6%,–
O=C(COc1ccccc1)Nc1nnc(S(=O)(=O)N2CCCC2)s1,inactive: -5.22%,–
O=C(OCC1CCCO1)c1ccc2c(c1)N(Cc1ccccc1Cl)C(=O)c1ccccc1S2(=O)=O (configuration not stated),inactive: -2.82%,–
CCOc1ccc(-n2c(=O)c3c4c(sc3n(CC(=O)Nc3cccc(C(F)(F)F)c3)c2=O)CCCCC4)cc1,inactive: -14.7%,–
COc1ccccc1NC(=O)C(Cc1ccccc1)NS(=O)(=O)c1ccc2c(c1)c(=O)n(C)c(=O)n2C (configuration not stated),inactive: -5.1%,–
Cc1cc(Nc2cccc(C(F)(F)F)c2)nc2ccc(NC(=O)c3ccc(=O)[nH]c3)cc12,inactive: -22.6%,–
O=C(NCc1ccc(F)cc1)c1c(O)nc2ccccn2c1=O,inactive: 0.0293%,–
CCCCOc1cccc(NC(=O)CSc2nnc(C)s2)c1,inactive: -13.2%,–
COc1ccc(OC)c(NC(=O)CSc2nc3ccccc3nc2N2CCCCC2)c1,inactive: -30%,–
CCCC(=O)OCc1cnc(C)c2oc(=O)c(C(=O)Nc3ccccc3)cc12,inactive: -3.53%,–
COc1ccc(NC(=O)C2CCC(CNS(=O)(=O)c3ccc(Br)s3)CC2)cc1OC (configuration not stated),inactive: -11.1%,–
CC(NC(=O)CCNS(=O)(=O)c1cccc2nsnc12)c1ccccc1 (configuration not stated),inactive: -2.73%,–
Cc1ccc2c(=O)cc(CSCC(=O)Nc3nnc(C)s3)[nH]c2c1,inactive: 8.1%,–
O=C(Nc1cccc(Cl)c1)c1cnc[nH]1,inactive: 62.4%,–
COc1cccc(C(c2c(O)cc(C)n(Cc3ccco3)c2=O)N2CCN(c3ccccc3)CC2)c1 (configuration not stated),inactive: -33.9%,–
O=C(CSc1nccn1Cc1ccc(Cl)cc1)Nc1ccc2c(c1)OCCO2,inactive: -15.5%,–
Cc1cc(C)n(C(C)CC(=O)NCc2ccc(N(C)C)cc2)n1 (configuration not stated),inactive: -8.18%,–
COC(=O)c1cc2sccc2n1Cc1nc(-c2ccc(Cl)cc2)oc1C,inactive: -11.2%,–
CCc1ccccc1NC(=O)c1ccc2c(c1)N(Cc1cc(C)ccc1C)C(=O)c1ccccc1S2(=O)=O,inactive: -11.7%,–
